In paper PMC6527243:
These are yes or no findings as the source states them, for the method shown. Binding seen in cells or lysates may run through a third protein. Some entries that bind do so weakly or less than the wild type. Where a sequence is shown, tags or fusion partners need not be part of it.

B1: HA-tagged TMEM98 (protein, UniProt Q91X86 1-226)
chain: METVVIVAIGVLATIFLASFAALVVVCRQRYCRPRDLLQRYDSKPIVDLIGAMETQSEPSELELDDVVITNPHIEAILENEDWIEDASGLMSHCIAILKICHTLTEKLVAMTMGSGAKMKTSASVSDIIVVAKRISPRVDDVVKSMYPPLDPKLLDARTTALLLSVSHLVLVTRNACHLTGGLDWIDQSLSAAEEHLEVLREAALASEPDKSLPNPEGFLQEQSAI
B2: full-length myc-MYRF (un-cleaved form) (protein, UniProt Q3UR85 1-1138)
chain: MEVVDETEALQRFFEGHDISGALEPSNIDTSILEEYIGKEDASDLCFPEISAPASTASFPHGPPAIPGSSGLHHLSPPGSGPSPGRHGPLPPPTYGTPLNCNNNNGMGTAPKPFLGGSGPPIKAEPKAPYAPGTLPDSPPDSGSEAYSPQQVNDPHLLRTITPETLCHVGVSSRLEHPPPPPAHLPGPPPPPPPPPHYPVLQRDLYMKAEPPVPPYAAMGPGLVPPELHHTQQTQVLHQLLQQHGAELPPHPSKKRKHSESPPNTLNAQMLNGMIKQEPGTVTALPPHPARAPSPPWPPQGPLSPGTGSLPLSIARAQTPPWHPPGAPSPGLLQDSDSLSGSYLDPNYQSIKWQPHQQNKWATLYDANYKELPMLTYRVDADKGFNFSVGDDAFVCQKKNHFQVTVYIGMLGEPKYVKTPEGLKPLDCFYLKLHGVKLEALNQSINIEQSQSDRSKRPFNPVTVNLPPEQVTKVTVGRLHFSETTANNMRKKGKPNPDQRYFMLVVALQAHAQNQNYTLAAQISERIIVRASNPGQFESDSDVLWQRAQLPDTVFHHGRVGINTDRPDEALVVHGNVKVMGSLMHPSDLRAKEHVQEVDTTEQLKRISRMRLVHYRYKPEFAASAGIEATAPETGVIAQEVKEILPEAVKDTGDVVFANGKTIENFLVVNKERIFMENVGAVKELCKLTDNLETRIDELERWSHKLAKLRRLDSLKSTGSSGAFSHAGSQFSRAGSVPHKKRPPKLANKSSPAVPDQACISQRFLQGTIIALVVVMAFSVVSMSTLYVLSLRSEEDLVDADGSLAVSTSCLLALLRPQDPGGSEAMCPWSSQSFGTTQLRQSSMTTGLPGTQPSLLLVTKSASGPALRALDLCSSQPCPIVCCSPPVSSPATDPALGPTLTPTPSPSSNPKHSGPGQMAPLPVTNIRAKSWGISANGISYSKHSKSLEPLASPVVPFPGGQSKTKNSPSFNLQSRARRGAPQPSPSPAQFTQTQGQLDPAPSLTSIQLLENSMPITSQYCVPEGACRLGNFTYHIPVSSSTPLHLSLTLQMNSSTPVSVVLCSLTSEEEPCEEGGFLQRFHPHQDTQGTSHQWPVTILSFREFTYHFRVTLLGQANCSSEAIVQPATDYYFHFYRLCD
B3: Myc-MYRF 1-846 (un-cleaved form) (domain or fragment, UniProt Q3UR85 1-846)
chain: MEVVDETEALQRFFEGHDISGALEPSNIDTSILEEYIGKEDASDLCFPEISAPASTASFPHGPPAIPGSSGLHHLSPPGSGPSPGRHGPLPPPTYGTPLNCNNNNGMGTAPKPFLGGSGPPIKAEPKAPYAPGTLPDSPPDSGSEAYSPQQVNDPHLLRTITPETLCHVGVSSRLEHPPPPPAHLPGPPPPPPPPPHYPVLQRDLYMKAEPPVPPYAAMGPGLVPPELHHTQQTQVLHQLLQQHGAELPPHPSKKRKHSESPPNTLNAQMLNGMIKQEPGTVTALPPHPARAPSPPWPPQGPLSPGTGSLPLSIARAQTPPWHPPGAPSPGLLQDSDSLSGSYLDPNYQSIKWQPHQQNKWATLYDANYKELPMLTYRVDADKGFNFSVGDDAFVCQKKNHFQVTVYIGMLGEPKYVKTPEGLKPLDCFYLKLHGVKLEALNQSINIEQSQSDRSKRPFNPVTVNLPPEQVTKVTVGRLHFSETTANNMRKKGKPNPDQRYFMLVVALQAHAQNQNYTLAAQISERIIVRASNPGQFESDSDVLWQRAQLPDTVFHHGRVGINTDRPDEALVVHGNVKVMGSLMHPSDLRAKEHVQEVDTTEQLKRISRMRLVHYRYKPEFAASAGIEATAPETGVIAQEVKEILPEAVKDTGDVVFANGKTIENFLVVNKERIFMENVGAVKELCKLTDNLETRIDELERWSHKLAKLRRLDSLKSTGSSGAFSHAGSQFSRAGSVPHKKRPPKLANKSSPAVPDQACISQRFLQGTIIALVVVMAFSVVSMSTLYVLSLRSEEDLVDADGSLAVSTSCLLALLRPQDPGGSEAMCPWSSQSFGTTQLRQSSMTT
B4: MYRF N-terminal cleavage product (Myc-tagged) (domain or fragment, UniProt Q3UR85 1-586)
chain: MEVVDETEALQRFFEGHDISGALEPSNIDTSILEEYIGKEDASDLCFPEISAPASTASFPHGPPAIPGSSGLHHLSPPGSGPSPGRHGPLPPPTYGTPLNCNNNNGMGTAPKPFLGGSGPPIKAEPKAPYAPGTLPDSPPDSGSEAYSPQQVNDPHLLRTITPETLCHVGVSSRLEHPPPPPAHLPGPPPPPPPPPHYPVLQRDLYMKAEPPVPPYAAMGPGLVPPELHHTQQTQVLHQLLQQHGAELPPHPSKKRKHSESPPNTLNAQMLNGMIKQEPGTVTALPPHPARAPSPPWPPQGPLSPGTGSLPLSIARAQTPPWHPPGAPSPGLLQDSDSLSGSYLDPNYQSIKWQPHQQNKWATLYDANYKELPMLTYRVDADKGFNFSVGDDAFVCQKKNHFQVTVYIGMLGEPKYVKTPEGLKPLDCFYLKLHGVKLEALNQSINIEQSQSDRSKRPFNPVTVNLPPEQVTKVTVGRLHFSETTANNMRKKGKPNPDQRYFMLVVALQAHAQNQNYTLAAQISERIIVRASNPGQFESDSDVLWQRAQLPDTVFHHGRVGINTDRPDEALVVHGNVKVMGSLMHP

Assays:
[1] = biological target: T1, full-length myc-MYRF (un-cleaved form) (UniProt Q3UR85); assay: co-IP; HEK293T cells co-transfected with HA-TMEM98 and Myc-MYRF constructs; lysis in 20 mM Tris pH 7.5, 150 mM NaCl, 1% Triton X-100, 1 mM EDTA, 1 mM EGTA; immunoprecipitation with mouse anti-Myc (4A6) and Dynabeads Protein G at 4 C; blot against HA
T1 sequence: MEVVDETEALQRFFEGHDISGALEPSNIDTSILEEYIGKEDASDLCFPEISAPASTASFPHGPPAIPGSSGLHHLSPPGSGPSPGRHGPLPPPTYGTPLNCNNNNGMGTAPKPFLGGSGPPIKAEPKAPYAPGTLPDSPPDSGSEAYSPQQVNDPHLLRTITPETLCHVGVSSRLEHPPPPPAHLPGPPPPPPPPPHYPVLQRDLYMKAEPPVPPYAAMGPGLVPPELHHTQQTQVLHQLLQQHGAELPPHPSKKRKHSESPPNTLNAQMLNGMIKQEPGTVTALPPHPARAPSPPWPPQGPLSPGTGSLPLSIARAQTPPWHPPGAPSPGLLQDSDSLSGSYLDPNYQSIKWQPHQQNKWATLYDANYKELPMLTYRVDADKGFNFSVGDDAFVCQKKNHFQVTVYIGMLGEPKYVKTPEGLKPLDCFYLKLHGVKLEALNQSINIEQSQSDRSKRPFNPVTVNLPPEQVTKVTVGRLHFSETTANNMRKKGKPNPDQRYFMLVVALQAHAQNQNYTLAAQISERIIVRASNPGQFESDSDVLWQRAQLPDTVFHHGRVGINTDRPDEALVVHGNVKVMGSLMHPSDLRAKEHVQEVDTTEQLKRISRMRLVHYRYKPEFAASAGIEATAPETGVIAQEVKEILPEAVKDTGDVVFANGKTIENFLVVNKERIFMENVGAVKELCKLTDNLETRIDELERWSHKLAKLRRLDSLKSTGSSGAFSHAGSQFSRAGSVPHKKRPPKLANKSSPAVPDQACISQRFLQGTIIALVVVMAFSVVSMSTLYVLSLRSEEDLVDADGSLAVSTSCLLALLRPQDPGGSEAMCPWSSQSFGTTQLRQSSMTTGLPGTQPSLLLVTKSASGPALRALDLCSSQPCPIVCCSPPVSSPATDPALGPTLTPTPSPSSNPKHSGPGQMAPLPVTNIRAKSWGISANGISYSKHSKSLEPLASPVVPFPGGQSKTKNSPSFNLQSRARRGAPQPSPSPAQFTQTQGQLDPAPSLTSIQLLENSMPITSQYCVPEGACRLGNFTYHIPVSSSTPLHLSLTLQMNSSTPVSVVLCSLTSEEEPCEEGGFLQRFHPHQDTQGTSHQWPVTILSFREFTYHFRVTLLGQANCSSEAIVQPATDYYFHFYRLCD

[2] = biological target: T2, Myc-MYRF 1-846 (un-cleaved form) (UniProt Q3UR85); assay: as above
T2 sequence: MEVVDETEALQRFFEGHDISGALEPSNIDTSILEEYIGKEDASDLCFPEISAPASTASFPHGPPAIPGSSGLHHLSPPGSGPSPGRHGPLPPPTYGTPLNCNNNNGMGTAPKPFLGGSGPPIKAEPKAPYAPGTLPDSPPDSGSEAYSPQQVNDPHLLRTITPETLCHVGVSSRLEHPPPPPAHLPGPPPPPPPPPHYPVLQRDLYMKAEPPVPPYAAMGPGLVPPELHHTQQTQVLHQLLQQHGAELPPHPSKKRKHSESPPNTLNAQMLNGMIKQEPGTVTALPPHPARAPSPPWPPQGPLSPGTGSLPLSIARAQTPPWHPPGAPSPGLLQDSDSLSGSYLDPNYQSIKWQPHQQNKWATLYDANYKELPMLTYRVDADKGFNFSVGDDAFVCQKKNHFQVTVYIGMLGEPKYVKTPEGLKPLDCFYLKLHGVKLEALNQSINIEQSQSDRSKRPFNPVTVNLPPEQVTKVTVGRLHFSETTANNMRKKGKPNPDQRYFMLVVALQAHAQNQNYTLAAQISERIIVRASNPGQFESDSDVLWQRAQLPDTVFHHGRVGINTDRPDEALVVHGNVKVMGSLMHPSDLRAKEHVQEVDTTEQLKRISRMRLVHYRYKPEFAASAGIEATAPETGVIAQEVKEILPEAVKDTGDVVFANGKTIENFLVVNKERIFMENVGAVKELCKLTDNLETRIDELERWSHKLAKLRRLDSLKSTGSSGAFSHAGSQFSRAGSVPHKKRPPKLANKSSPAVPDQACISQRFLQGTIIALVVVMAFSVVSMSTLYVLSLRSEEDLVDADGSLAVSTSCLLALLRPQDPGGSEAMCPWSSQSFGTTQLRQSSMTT

[3] = biological target: T3, Myc-C-terminal-cleavage-product of MYRF (aa587-1139) (UniProt Q3UR85); assay: as above
T3 sequence: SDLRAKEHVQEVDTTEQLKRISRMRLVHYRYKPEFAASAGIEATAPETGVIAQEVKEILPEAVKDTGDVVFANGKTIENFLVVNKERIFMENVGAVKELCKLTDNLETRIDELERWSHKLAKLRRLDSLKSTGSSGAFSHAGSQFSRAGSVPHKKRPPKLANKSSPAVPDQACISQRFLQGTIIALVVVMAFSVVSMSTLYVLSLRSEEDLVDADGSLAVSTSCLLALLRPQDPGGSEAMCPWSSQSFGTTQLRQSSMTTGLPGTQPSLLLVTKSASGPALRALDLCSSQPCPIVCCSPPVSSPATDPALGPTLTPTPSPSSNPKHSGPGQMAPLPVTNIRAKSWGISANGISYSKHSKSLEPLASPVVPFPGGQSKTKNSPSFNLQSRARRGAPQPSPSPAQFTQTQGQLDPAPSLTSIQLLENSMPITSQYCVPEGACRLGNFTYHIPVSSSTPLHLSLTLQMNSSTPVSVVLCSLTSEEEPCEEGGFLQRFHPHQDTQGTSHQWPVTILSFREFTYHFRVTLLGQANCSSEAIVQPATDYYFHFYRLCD

HA-tagged TMEM98 = biological target: T4, HA-tagged TMEM98 (UniProt Q91X86); assay: co-IP; HEK293T cells co-transfected with HA-TMEM98 and Myc-MYRF constructs; lysis in 20 mM Tris pH 7.5, 150 mM NaCl, 1% Triton X-100, 1 mM EDTA, 1 mM EGTA; immunoprecipitation with rat anti-HA (3F10) and Dynabeads Protein G at 4 C; blot against Myc
T4 sequence: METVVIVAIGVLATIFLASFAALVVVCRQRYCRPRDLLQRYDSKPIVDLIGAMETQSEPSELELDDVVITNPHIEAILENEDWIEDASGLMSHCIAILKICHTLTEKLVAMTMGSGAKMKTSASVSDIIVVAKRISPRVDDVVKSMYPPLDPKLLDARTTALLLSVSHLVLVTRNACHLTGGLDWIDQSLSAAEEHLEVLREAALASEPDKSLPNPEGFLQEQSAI

Binder	binding [1]	binding [2]	binding [3]	binding (HA-tagged TMEM98)
B1	binds	binds	binds	–
B2	–	–	–	binds
B3	–	–	–	binds
B4	–	–	–	no binding
